Among all 350,000 compounds or so, about 9,900 (2.8%) were called active. This list was built around the results that the source calls inconclusive (neither active nor inactive); the mix of calls is not that of the screen. Calls follow the shape of the dose curve; as a rule, active = well fitted activation curve with a large enough effect; inconclusive = small, poorly fitted or top-dose-only effect; inactive = no such curve, though single readings can be large or run the other way. Potencies of inconclusive entries are left out as doubtful fits.
assay: A quantitative high throughput screen for small molecules that induce DNA re-replication in MCF 10a normal breast cells.; also: nearly all actives have a fitted effect of over 50% in size; as to activity, positive = re-replication: % of control where 0% means no effect; details: MCF 10A DNA re-replication, Hoechst nuclear intensity, 48 h; activity, positive = re-replication: at 46.1 µM (top of the series)
Potency is read from the fitted curve at half-maximal effect; tags tell the direction and shape of the fitted curve.

SMILES	activity, positive = re-replication	Potency
COc1ccc(-c2nnn(Cc3ccccc3)n2)cc1OC	inactive: -9.74%	–
O=C(Nc1ccc(N2CCOCC2)cc1)c1c(F)cccc1Cl	inactive: -4.31%	–
CC(C)Nc1nnc(SC(C)C(=O)N(C)C2CCCCC2)s1 (stereo unspecified)	–	inconclusive [activator, single point]
Cc1ccc(NC(=O)CN(C)C(=O)CSc2ccc3c(c2)OCCO3)cc1	inactive: 0.556%	–
COc1cc(/C=N/NC(=O)c2ccc(-n3cccc3)cc2)ccc1O	–	inconclusive [activator, single point]
CCCCOc1nc2ccccc2nc1NS(=O)(=O)c1ccc(F)cc1	–	inconclusive [activator, partial curve, poor fit]
Cc1cc(C)cc(NC(=O)Nc2ccc3c(c2)CCC3)c1	–	inconclusive [activator, single point]
CCOc1ccc(C(O)(CCC(C)C)C(CN2CCOCC2)c2ccccc2)cc1 (stereo unspecified)	–	inconclusive [activator, single point]
COc1cc(CNCCc2ccccc2)cc(Cl)c1OCc1ccccc1	–	active: 23.1 µM
COCC(=O)Nc1cc(C)cn(Cc2ccccc2Cl)c1=O	–	inconclusive [activator, single point]
COc1ccnc(-n2cccc2C#N)c1C#N	inactive: 3.1%	–
COc1ccc(N=Cc2cc(Cl)ccc2O)cc1Cl	–	inconclusive [activator, single point]
O=C(O)C1CCN(C(=O)CCN2C(=O)S/C(=C\c3ccccc3)C2=O)CC1	inactive: 11.6%	–
COc1ccc(NC(=O)c2ccc(NC(=O)c3nc4nccc(C)n4n3)cc2)cc1	inactive: -2.14%	–
CN(C)CCNc1ncnc2c1sc1nc(-c3ccccc3)c3c(c12)CCCC3	–	inconclusive [activator, single point]
COC(=O)c1ccc2c(=O)n(CCCCCC(=O)NC(C)C)c(=O)[nH]c2c1	–	inconclusive [activator, single point]
Cc1ccc(C2CC2/C(=N/O)c2ccc(F)cc2)cc1 (stereo unspecified)	–	inconclusive [activator, single point]
Cc1ccccc1OCCCSc1nc2ccccc2[nH]1	–	inconclusive [activator, single point]
C[C@]12CS(=O)(=O)C[C@H]1SC(=S)N2c1ccccc1	–	inconclusive [activator, single point]
CC(=O)C(Sc1nc(NC(C)(C)C)nc(N(C)C)n1)C(C)=O	–	inconclusive [activator, partial curve, poor fit]
O=C(NC(=S)Nc1ccc(S(=O)(=O)Nc2ncccn2)cc1)c1ccc(Br)cc1	inactive: 2.01%	–
COc1ccc(NC(=S)N/N=C/c2cccn2Cc2ccc(F)cc2Cl)cc1	–	inconclusive [activator, single point]
COc1cccc(-c2c(-c3cc(OC)cc(OC)c3)n(C)c3ccc(-c4cnc(N5CCOCC5)nc4)cc23)c1	inactive: -12.6%	–

SMILES	activity, positive = re-replication	Potency
COc1ccccc1N(CC(=O)NC1CCCCC1)C(=O)Cn1nnc(-c2ccc(C)o2)n1	inactive: 7.4%	–
N#Cc1c(N)c(C#N)c(-c2ccc(O)cc2)c2c1CCCC2	–	inconclusive [activator, single point]
COc1ccccc1N1CCN(c2nc3ccccn3c(=O)c2C=O)CC1	–	inconclusive [activator, partial curve, poor fit]
COCc1nc(-c2ccc(-c3ccccc3)nc2OC)no1	inactive: 4.49%	–
CC(C)(C)OC(=O)N(Cc1ccccc1)Cc1ccccc1OCc1ccc(NC(=O)C2CCC2)cc1	–	inconclusive [activator, partial curve]
Cc1oc(-c2ccccc2F)nc1CS(=O)(=O)CC(=O)NC(C)CCc1ccccc1 (stereo unspecified)	inactive: 9.93%	–
O=[N+]([O-])c1cc(-c2cnc3ccccc3n2)ccc1Oc1ccc(Cl)cc1	–	inconclusive [activator, full curve]
O=C(NCc1ccc2c(c1)OCO2)c1cc(-c2ccccc2Cl)on1	–	inconclusive [activator, full curve, poor fit]
Cc1ccc(C(=O)Nc2ncc3c(n2)CC(c2ccco2)CC3=O)cc1 (stereo unspecified)	–	inconclusive [activator, partial curve, poor fit]
O=CC1=C(c2ccccc2)Oc2ccccc2O1	–	inconclusive [activator, single point]
Fc1ccc(N=c2ssnc2Cl)c(F)c1	–	inconclusive [activator, single point]
COCCN(C(=S)Nc1ccccc1C)C(C)c1ccco1 (stereo unspecified)	inactive: -2.07%	–
CCC/C=C(\CCC)C(NS(=O)(=O)c1ccc(C(F)(F)F)cc1)c1ccccc1 (stereo unspecified)	–	inconclusive [activator, partial curve, poor fit]
Cc1ccc(/C=N/NC(=O)c2ccoc2C)s1	inactive: -0.341%	–
COc1cc(S(=O)(=O)NCc2ccccc2)ccc1Br	–	inconclusive [activator, partial curve, poor fit]
CC(=O)N1CCC(C(=O)Nc2cc(C)cc(C)c2)CC1	inactive: 1.35%	–
COCCN=c1scc(-c2ccccc2)n1/N=C/c1c[nH]c2ccccc12	–	inconclusive [activator, full curve]
COc1ccccc1C1=Nc2cccc3cccc(c23)N1	–	inconclusive [activator, partial curve, poor fit]
Cc1cccc(C(=O)Nc2sc(C)c(-c3ccccc3)c2C#N)c1	–	active: 9.2 µM
CC(C)n1ncc2c(C(=O)N3CCN(Cc4ccc(Cl)s4)CC3)cc(C3CC3)nc21	–	inconclusive [activator, single point]
C=CCn1c(=N)c(C(=O)NCCCOC)cc2c(=O)n3ccccc3nc21	–	active: 2.06 µM
Cc1ccsc1C(C(=O)NC1CCCCC1)N(C(=O)Cc1cccs1)C1CC1 (stereo unspecified)	–	inconclusive [activator, single point]
COc1ccc2oc(C(=O)OC(C)C(=O)N3C(C)CCCC3C)c(C)c2c1 (stereo unspecified)	–	inconclusive [activator, partial curve, poor fit]

From PubChem BioAssay AID624296 (National Center for Advancing Translational Sciences (NCATS), 2012)
